# Laboratory results reported in the supplement of paper PMC7826260.
# This is one part of the list. Viral Rep nickase domains cut single-stranded DNA in vitro (1 h at 37 °C, 3 µM enzyme); the outer parts of the 90-letter strands are left off. Uncut reads are compared with the no-enzyme pool on a log2 scale; strong cutting gives strongly negative numbers. There is no active / inactive call. Because reads are shares of a total, they shift together; uncut strands gain when others are lost, and binding without cutting may add a little.
# Key:
# Test in all cases: uncleaved DNA left, log2 of reads against the no-enzyme library (log2 ratio); higher = less cleavage (more negative = more Rep cleavage of the k-mer); sequences stand for … in CTCGTCCG…ACCGGAGA
# [1] = test system: T1, Rep nickase domain of Muscovy duck circovirus
# T1 sequence (protein, residues 1-111, tag omitted): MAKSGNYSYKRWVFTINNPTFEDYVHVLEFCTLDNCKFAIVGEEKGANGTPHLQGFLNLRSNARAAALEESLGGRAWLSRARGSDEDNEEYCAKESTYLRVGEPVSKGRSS
# Protocol: (§1)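 A pool of 90-nt single-stranded DNAs with seven random bases just before the constant AC of the nick site (name = the seven bases) was cut by 3 µM recombinant His6-SUMO-tagged Rep nickase domain (300 nM DNA, 50 mM HEPES pH 8.0, 50 mM NaCl, 1 mM MnCl2, 1 h, 37 °C, three replicates). Uncut DNA was amplified and sequenced.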
# [2] = test system: T2, Rep nickase domain of banana bunchy top virus
# T2 sequence (protein, residues 1-94, tag omitted): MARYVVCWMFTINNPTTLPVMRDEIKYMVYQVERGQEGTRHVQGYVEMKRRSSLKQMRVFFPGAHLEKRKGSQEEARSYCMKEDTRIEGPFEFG
# Protocol: as §1
# [3] = test system: T3, Rep nickase domain of cabbage leaf curl virus
# T3 sequence (protein, residues 1-116, tag omitted): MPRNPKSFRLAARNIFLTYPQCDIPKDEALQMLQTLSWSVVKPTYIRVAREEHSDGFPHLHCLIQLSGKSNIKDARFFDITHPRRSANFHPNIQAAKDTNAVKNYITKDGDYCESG
# Protocol: as §1
# [4] = test system: T4, Rep nickase domain of chickpea chlorotic dwarf virus
# T4 sequence (protein, residues 1-124, tag omitted): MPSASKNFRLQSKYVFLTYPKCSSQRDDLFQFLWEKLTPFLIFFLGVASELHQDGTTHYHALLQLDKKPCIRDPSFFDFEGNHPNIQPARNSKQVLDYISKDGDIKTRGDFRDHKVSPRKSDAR
# Protocol: as §1
# [5] = test system: T5, Rep nickase domain of faba bean necrotic yellows virus
# T5 sequence (protein, residues 1-98, tag omitted): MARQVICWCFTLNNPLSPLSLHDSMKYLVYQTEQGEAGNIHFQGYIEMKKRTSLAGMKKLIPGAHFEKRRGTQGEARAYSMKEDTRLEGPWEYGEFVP
# Protocol: as §1
# [6] = test system: T6, Rep nickase domain of maize striate mosaic virus
# T6 sequence (protein, residues 1-117, tag omitted): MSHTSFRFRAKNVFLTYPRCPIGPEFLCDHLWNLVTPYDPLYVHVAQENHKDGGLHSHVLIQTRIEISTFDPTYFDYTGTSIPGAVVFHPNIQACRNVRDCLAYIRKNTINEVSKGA
# Protocol: as §1
# [7] = test system: T7, Rep nickase domain of porcine circovirus 2
# T7 sequence (protein, residues 2-116, tag omitted): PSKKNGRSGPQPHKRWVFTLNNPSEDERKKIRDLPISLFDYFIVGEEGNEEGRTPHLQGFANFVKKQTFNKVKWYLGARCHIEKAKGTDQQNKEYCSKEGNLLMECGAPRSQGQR
# Protocol: as §1
# [8] = test system: T8, Rep nickase domain of tomato golden mosaic virus
# T8 sequence (protein, residues 1-124, tag omitted): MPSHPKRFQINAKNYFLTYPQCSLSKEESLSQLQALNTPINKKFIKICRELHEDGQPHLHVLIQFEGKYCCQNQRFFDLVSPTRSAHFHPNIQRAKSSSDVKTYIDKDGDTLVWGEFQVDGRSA
# Protocol: as §1
# [9] = test system: T9, Rep nickase domain of tomato yellow leaf curl virus
# T9 sequence (protein, residues 1-136, tag omitted): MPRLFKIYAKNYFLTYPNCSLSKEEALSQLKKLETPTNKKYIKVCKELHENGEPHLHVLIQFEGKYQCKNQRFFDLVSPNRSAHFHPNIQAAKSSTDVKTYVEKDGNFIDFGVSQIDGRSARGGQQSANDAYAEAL
# Protocol: as §1
# [10] = test system: T10, Rep nickase domain of wheat dwarf virus
# T10 sequence (protein, residues 1-137, tag omitted): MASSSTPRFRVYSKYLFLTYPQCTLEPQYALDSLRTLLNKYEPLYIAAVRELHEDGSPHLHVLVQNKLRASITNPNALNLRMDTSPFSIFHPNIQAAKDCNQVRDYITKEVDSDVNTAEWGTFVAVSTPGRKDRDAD
# Protocol: as §1
Sequence,uncleaved DNA left (log2) [1],uncleaved DNA left (log2) [2],uncleaved DNA left (log2) [3],uncleaved DNA left (log2) [4],uncleaved DNA left (log2) [5],uncleaved DNA left (log2) [6],uncleaved DNA left (log2) [7],uncleaved DNA left (log2) [8],uncleaved DNA left (log2) [9],uncleaved DNA left (log2) [10]
GTTGATA,0.12,0.146,0.376,0.95,0.0729,1.86,0.115,0.166,0.182,0.188
CTGGTGA,0.0447,0.0241,-0.25,-0.403,0.0534,-0.826,-0.0691,-0.0898,-0.066,-0.106
TTGCCCA,-0.593,-0.348,-0.319,-0.832,-0.0942,-0.834,-2.05,-0.0386,0.0641,-0.0251
AGATTGT,-0.118,-0.0909,-0.304,-0.28,0.0142,-0.879,-0.505,0.0249,0.00283,-0.0367
AACAGAA,0.0552,0.0744,-0.0651,-0.302,0.0799,-0.622,-0.0188,0.0117,-0.044,-0.000855
ACATCTC,0.0514,-0.0867,-0.432,-0.478,0.00127,-0.352,0.109,0.0276,-0.0674,0.0474
CCGTTCG,0.0624,-0.255,-0.628,0.281,-0.167,-0.504,-0.0718,-0.12,-0.0531,-0.3
CATGCGG,0.0338,0.0931,0.286,1,0.0641,0.558,0.165,0.114,0.0497,0.0917
CAAGATG,-0.137,-0.0339,0.204,1.25,0.0484,1.47,-0.00362,0.00336,-0.171,0.0436
GAATCAA,0.0055,0.126,0.212,0.619,0.0731,1.04,0.0684,0.0713,0.235,0.174
CACACTT,-0.0712,-1.97,-1.32,-2.89,-0.023,-1.04,-2.94,-0.213,-0.0878,-0.281
CCCCCCG,-0.105,0.0337,-0.76,0.147,-0.0625,-0.74,-0.0542,-0.122,-0.0786,-0.136
CCGTCGT,0.00901,-0.222,-0.58,-0.735,-0.107,-0.776,-0.492,-0.0851,0.0106,-0.168
GGGTGTT,-0.189,0.0182,0.571,1.61,-0.252,2.1,-2.31,-0.0928,0.0805,-0.044
CCCACTC,-0.0194,-0.0619,0.14,-0.62,0.0153,-0.506,0.035,-0.0552,0.00989,0.0819
TCAGTAT,0.208,0.0104,0.212,0.583,0.15,1.08,0.242,0.0906,0.00278,0.0816
GTTAATC,0.153,0.186,0.408,0.931,0.0422,1.59,0.192,0.129,0.115,0.156
AGGAGCC,0.00511,-0.0877,0.0823,0.332,-0.0569,-0.175,-0.0204,-0.0896,-0.0548,0.0874
TCCTGTT,-2.91,-0.353,-0.869,-2.14,-0.0461,-0.683,-3.28,-0.231,-0.0712,-0.665
ATACACG,-0.0271,0.0159,-0.903,-0.155,0.0107,-1.03,0.0949,-0.122,-0.0943,-0.159

Sequence,uncleaved DNA left (log2) [1],uncleaved DNA left (log2) [2],uncleaved DNA left (log2) [3],uncleaved DNA left (log2) [4],uncleaved DNA left (log2) [5],uncleaved DNA left (log2) [6],uncleaved DNA left (log2) [7],uncleaved DNA left (log2) [8],uncleaved DNA left (log2) [9],uncleaved DNA left (log2) [10]
GCAGACG,-0.208,-0.0656,-0.657,-0.399,0.0042,-0.79,0.123,-0.0481,-0.0939,-0.0915
TCGTGCT,-0.716,-0.159,-1.16,-1.58,-0.321,-1.13,-3.35,-0.147,-0.0049,-0.253
ATGGTAA,0.0312,-0.149,0.158,0.398,-0.0116,0.696,0.0721,0.0206,-0.042,0.0305
TTGTGAA,0.0801,0.048,-0.00509,-0.0639,0.0281,-0.403,0.0167,0.0215,0.037,-0.0521
CCGGCCC,0.0435,-0.089,0.133,0.135,-0.061,0.265,0.0413,-0.06,-0.202,-0.201
GCATATT,-2.79,-0.682,-1.35,-2.3,-0.105,-0.253,-2.91,-0.3,0.022,-0.555
GGAGGAC,-0.0653,-0.067,0.758,1.91,-0.0865,2.08,0.175,-0.0636,0.0101,0.0797
AGTACAC,0.0907,0.0589,0.239,0.366,0.0718,0.225,0.103,-0.00947,0.0459,0.0788
CTTATAA,0.24,0.259,0.0819,-0.0321,0.237,-0.51,0.113,0.131,0.19,0.338
TAGGTAG,0.00302,-0.0501,-0.706,-0.587,-0.0449,-1.14,0.0723,-0.0287,0.0814,-0.131
AAGCGGT,0.00524,-0.0759,0.178,1.22,-0.135,1.47,-0.147,0.0814,-0.207,-0.0534
AACGGAG,0.124,0.0788,0.014,0.674,-0.0095,0.038,0.204,0.0706,0.0376,0.116
GGCAGAC,0.0177,0.171,0.834,1.93,0.0178,2.21,0.332,0.122,0.107,0.132
CCAGCCG,0.02,-0.0103,-0.742,-0.26,0.157,-0.733,0.132,0.0052,-0.146,-0.0527
AACAAAT,0.0774,0.0311,-0.107,-1.63,0.0479,-0.478,-2.07,0.19,-0.112,0.0743
CTGGGGG,-0.0266,-0.13,0.0269,0.0743,-0.0898,-0.297,0.0348,-0.0921,-0.264,-0.209
GATCTAT,-0.0417,-0.0134,0.284,0.527,-0.03,1.21,-0.134,0.0885,0.101,0.166
ATCTGGT,-0.139,-0.13,-0.111,0.155,-0.166,0.388,-1.39,-0.13,-0.0695,-0.104
GGCTCAA,0.0334,0.0737,0.42,1.12,0.0128,1.67,0.0535,0.0478,0.0512,0.0797
TGTAGAG,0.0063,-0.0585,-0.345,-0.423,-0.0413,-0.934,0.0725,-0.0618,-0.111,-0.168

Sequence,uncleaved DNA left (log2) [1],uncleaved DNA left (log2) [2],uncleaved DNA left (log2) [3],uncleaved DNA left (log2) [4],uncleaved DNA left (log2) [5],uncleaved DNA left (log2) [6],uncleaved DNA left (log2) [7],uncleaved DNA left (log2) [8],uncleaved DNA left (log2) [9],uncleaved DNA left (log2) [10]
TAAGCGG,0.0654,0.0726,0.348,1.19,0.0305,1.3,0.198,0.155,0.00922,0.0874
ATCTATT,-3.31,-3.44,-1.22,-2.81,-1.06,-0.858,-3.63,-0.173,0.00435,-0.645
CGAGACT,0.0662,-0.012,0.316,0.329,0.0571,1.31,-0.00444,-0.0406,-0.00856,-0.0227
TATTTTC,-3.07,-0.647,0.128,-0.615,0.066,-0.641,-1.19,-0.0436,0.161,0.0142
AAGGGGG,0.132,0.00531,-0.125,0.115,0.0493,-0.489,0.284,0.19,0.00564,0.0332
TTGTTCC,-0.151,-0.169,0.0941,-0.0174,-0.0839,0.0528,-0.172,-0.189,-0.171,-0.0892
TGCTGAT,-0.024,-0.0487,0.163,0.452,-0.028,0.851,-0.888,-0.0419,-0.106,-0.0503
CGGTATG,-0.00485,-0.0759,-0.0894,0.17,-0.0365,0.27,-0.00153,-0.0668,0.00406,-0.0807
CCGCTTC,0.0278,0.0117,0.172,-0.235,-0.00776,-0.409,0.00925,-0.0484,-0.158,-0.0316
ATATGGG,0.0464,-0.00523,-0.552,-0.516,0.0889,-1.01,0.247,-0.00478,0.0286,-0.0992
AGATGCG,-0.192,-0.0657,-0.302,1.24,0.0584,0.752,0.109,-0.119,-0.174,-0.0531
CCCCGCA,-0.163,-0.0994,-0.28,-0.793,-0.259,-1.03,-0.0901,-0.159,-0.156,-0.0525
TGGTTTC,-0.0662,-0.0457,0.327,0.673,0.0673,1.04,0.104,-0.0118,0.0791,0.0878
GACTTTT,-2.86,-2.52,-0.157,-1.68,-0.295,0.696,-3.01,-0.206,-0.0982,-0.185
GCTGCGA,-0.0187,-0.0301,-0.76,0.14,-0.0606,-0.789,0.162,-0.00964,-0.135,-0.131
TCTGCAG,-0.00516,-0.132,-0.793,-0.691,-0.236,-1.24,0.16,-0.21,-0.22,-0.212
CTACAAC,-0.22,-0.0973,-0.394,-2.43,-0.0174,-0.835,-0.111,-0.222,-0.215,-0.119
CGCTTAC,0.0406,-0.171,-0.307,-1.69,-0.147,-0.669,-0.137,-0.192,-0.0815,-0.104
CAAGTGC,-0.0894,-0.0924,-0.714,-0.728,-0.083,-1.29,0.0468,-0.0461,0.0454,-0.197
ATCGTAA,0.0397,0.041,-0.0772,-0.228,0.106,-0.745,0.13,0.019,0.113,0.0621
